± gives the standard deviation. In all, about 5,500 sequences were measured (“pre-steady-state target cleavage rate”: median about 0.1, highest 2% from about 0.64 on). The list shows a part of the results, in another mix than the full data.

This test deals with MIWI (PIWIL1) piRISC loaded with piRNA #2 (30 nt). The test can be described thus: pre-steady-state target cleavage rate (min^-1); MIWI and MILI are mouse PIWI proteins and EfPiwi is from a freshwater sponge; tags in brackets are library labels; higher = faster piRNA-guided slicing of the target. The following applies: guide: piRNA #2 5'p-UUAGGUAACCCAGUAGAUCCAGAGGAAUUC; auxiliary factor: 500 nM mouse GTSF1. Summed up: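 At 33 °C in HEPES–potassium acetate buffer, a transcribed, DNA-blocked target RNA library […] was exposed for 0–8 or 0–960 min to 1 nM active affinity-purified piRISC carrying a single synthetic guide, with or without 500 nM GTSF1 partner protein. Uncleaved targets were sequenced and normalised to depth and to weakly complementary targets. With three trials pooled and k3 capped at 0.0001 min^-1, a burst-and-steady-state fit produced the pre-steady-state cleavage rate.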
Consider CUUAAGCUCUGGAUCUACUAGGUUACCUAA, for which the “pre-steady-state target cleavage rate” value stood at 0.0534 ± 0.011.

As to CUUAAGGUCUGCUUCUACUGGGUUACCUAA, the “pre-steady-state target cleavage rate” value is 0.112 ± 0.028.

Turning to CUAUUCCCCUGGAUCUACUGGGUUACCUAA, the “pre-steady-state target cleavage rate” value was 0.498 ± 0.032.

Regarding CUUAACCUCUGGAUCUACUGGGUUACCAUAA, the “pre-steady-state target cleavage rate” value was determined as 0.248 ± 0.033.

In the case of GAAUUCCUCUGGAUCUACUGGGUUACUCUAA, the “pre-steady-state target cleavage rate” value was 0.305 ± 0.046.

Take GAAUUCCUCUGGUUCUACUCGGUUACCUAA: the “pre-steady-state target cleavage rate” value came to 0.16 ± 0.017.

With CUUAAGGUCAGGAUCUACAGGGUUACCUAA, the “pre-steady-state target cleavage rate” value was found to be 0.0122 ± 0.0052.

For the sequence CUUAAGCUCAGGAUCUACUGGGUUAGCUAA, the “pre-steady-state target cleavage rate” value was found to be 0.0368 ± 0.012.

For CUUAACCUCUGGAUCUACUGGGUUAUCCUAA, the “pre-steady-state target cleavage rate” value amounted to 0.207 ± 0.034.

Consider CUUUUCCUCUGGAGCUACUGGGUUACCUAA, for which the “pre-steady-state target cleavage rate” value came out at 0.386 ± 0.03.

Consider CUUAAGGAGACCUACUACUGAGUUACCUAA, for which the “pre-steady-state target cleavage rate” value is 0.00666 ± 0.0026.

As for “CUUAAGGUCUGGAUCUACUGGGUUACCUAU [g2:g23:cont:t1U]”, the “pre-steady-state target cleavage rate” value was found to be 0.275 ± 0.025.

For the sequence CAAUUCCUGUGGAUCUACUGGGUAACCUAA, the “pre-steady-state target cleavage rate” value came to 0.171 ± 0.035.

In the case of CUAUUCCUCUGGAACUACUGGGUUACGUAA, the “pre-steady-state target cleavage rate” value amounted to 0.47 ± 0.031.

With CUUAACCUGUGGAUCUACUGCGUUACCUAA, the “pre-steady-state target cleavage rate” value came to 0.247 ± 0.04.

Regarding “CUUAAGGAGAGGAUCUACUGGGUUACCUAC [g2:g20:cont:t1C]”, the “pre-steady-state target cleavage rate” value was found to be 0.0183 ± 0.0054.

In the case of GAAUUCCUCUGGAACAACUGGGUUACCUAA, the “pre-steady-state target cleavage rate” value was 0.397 ± 0.045.

On to GAAUUCCUCUGGAACUAGUGGGUUACCUAA, for which the “pre-steady-state target cleavage rate” value amounted to 0.221 ± 0.027.

Regarding CUUAAGGUCAGGAUCAACUGGGUUACCUAA, the “pre-steady-state target cleavage rate” value worked out at 0.0181 ± 0.0069.

For CAAUUCCUACUGGAUCUACUGGGUUACCUAA, the “pre-steady-state target cleavage rate” value turned out to be 0.516 ± 0.056.

As for CUAUUCCUCUGGAUGUACUGGGUUAGCUAA, the “pre-steady-state target cleavage rate” value came to 0.341 ± 0.032.

Regarding CUAUACCUCUCGAUCUACUGGGUUACCUAA, the “pre-steady-state target cleavage rate” value worked out at 0.571 ± 0.052.

For CUUAAGGUCUCGAUCUACAGGGUUACCUAA, the “pre-steady-state target cleavage rate” value is 0.134 ± 0.02.

CUAUUCCACAGGAUCUACUGGGUUACCUAA: the “pre-steady-state target cleavage rate” value was determined as 0.386 ± 0.059.

CUUUUCCUCCGGAUCUACUGGGUUACCUAA: the “pre-steady-state target cleavage rate” value was 0.625 ± 0.096.

With CUUAAGGUCUAGAUCUACUGGGUUACCUAA, the “pre-steady-state target cleavage rate” value amounted to 0.249 ± 0.024.

Consider GAAUUCCUCUGGAUCUAGCUGGGUUACCUAA, for which the “pre-steady-state target cleavage rate” value amounted to 0.00367 ± 0.0036.

Regarding CUUAUCCUCUGGACUCUACUGGGUUACCUAA, the “pre-steady-state target cleavage rate” value was found to be 0.159 ± 0.02.

As to CUUAAGCUCUGGAUCUACUGGGCUUACCUAA, the “pre-steady-state target cleavage rate” value is 0.0207 ± 0.007.

Turning to CAAUUCCUCUGCAUCUACUGGGUUACCUUA, the “pre-steady-state target cleavage rate” value is 0.371 ± 0.054.

On to CUUAACCUCUGGAUGUACUCGGUUACCUAA, for which the “pre-steady-state target cleavage rate” value is 0.102 ± 0.018.

As to CUUUUCCUCUGGAUCUACUGCGUUACGUAA, the “pre-steady-state target cleavage rate” value was found to be 0.44 ± 0.053.

Turning to CUUAACCUCUGGAUCUACUGGCUUUCCUAA, the “pre-steady-state target cleavage rate” value was 0.0273 ± 0.0076.

For CUUAAGCUCUCGAUCAACUGGGUUACCUAA, the “pre-steady-state target cleavage rate” value amounted to 0.317 ± 0.025.

With CUUAAGGAGUGGAAGUACUGGGUUACCUAA, the “pre-steady-state target cleavage rate” value is 0.0127 ± 0.0062.

Take CUUAAGGAGAGGAUGUACUGGGUUACGUAA: the “pre-steady-state target cleavage rate” value turned out to be 0.00924 ± 0.0075.

For GAAUUGCUCUGGAUCUACUGGGUUAGCUAA, the “pre-steady-state target cleavage rate” value amounted to 0.395 ± 0.07.

CUUAAGCUCUGGAAGAACUGGGUUACCUAA: the “pre-steady-state target cleavage rate” value was found to be 0.0546 ± 0.021.

Take GAAUUCCUCUGGAUCUACGGGGUUACCUAA: the “pre-steady-state target cleavage rate” value amounted to 0.0615 ± 0.0083.

In the case of CUUAUCCUCUGGAUCUACUGGGUAUACCUAA, the “pre-steady-state target cleavage rate” value was 0.416 ± 0.051.

Take CUUAAGGAGACCUUCUACUGCGGUUACCUAA: the “pre-steady-state target cleavage rate” value was determined as 0.00469 ± 0.0026.

On to CUAUUCCUCUGGAUCAACUGGGUUUCCUAA, for which the “pre-steady-state target cleavage rate” value worked out at 0.267 ± 0.056.

Turning to CUUAAGGACUGGAUCUAGUGGGAUACCUAA, the “pre-steady-state target cleavage rate” value worked out at 0.00604 ± 0.0053.

CAAUUCCUCUGCAUCUACUGGGUUACCAAA: the “pre-steady-state target cleavage rate” value was determined as 0.381 ± 0.055.

As to CUAUUCCUCUGGAUCUACUGGCUAACCUAA, the “pre-steady-state target cleavage rate” value was 0.0114 ± 0.0053.

With GAAAACCUCUGGAUCUACUGGGUUACCUAA, the “pre-steady-state target cleavage rate” value worked out at 0.113 ± 0.027.

Regarding CUUAUCCUCUGCAUCUAGUGGGUUACCUAA, the “pre-steady-state target cleavage rate” value came to 0.116 ± 0.013.

For the sequence GAUAUUCCUCUGGAUCUACUGGGUUACCUAA, the “pre-steady-state target cleavage rate” value came to 0.165 ± 0.038.

For CUUAAGGUCUGGAUCAACUGGGUUACCUUA, the “pre-steady-state target cleavage rate” value turned out to be 0.0897 ± 0.014.

Take CUUAUCCGUCUGGAUCUACUGGGUUACCUAA: the “pre-steady-state target cleavage rate” value amounted to 0.437 ± 0.054.

With GAAUUCCUCUGGAUCUACUGGGUUACGCUAA, the “pre-steady-state target cleavage rate” value came out at 0.498 ± 0.049.

CUUAAGGACUGGAUCAACAGGGUUACCUAA: the “pre-steady-state target cleavage rate” value came out at 0.0104 ± 0.0083.

Take CUUAAGGAGAGCGAUCUACUGGGUUACCUAA: the “pre-steady-state target cleavage rate” value came to 0.00514 ± 0.003.

For the sequence CUUAAGGAUUGGAUCUACUGGGUUACCUAA, the “pre-steady-state target cleavage rate” value is 0.185 ± 0.041.

With CUUAAGGAGUGGAUCUACAGGGUUACCUUA, the “pre-steady-state target cleavage rate” value is 0.00843 ± 0.0024.

GAAUUCCUCUGGAUCUACUCCGUUACCUAA: the “pre-steady-state target cleavage rate” value was determined as 0.0299 ± 0.0075.

For CUUAAGGACUGGAUCUCCUGGGUUACCUAA, the “pre-steady-state target cleavage rate” value stood at 0.0486 ± 0.027.

With CUUAUCCUCUGGAUCAACAGGGUUACCUAA, the “pre-steady-state target cleavage rate” value turned out to be 0.21 ± 0.026.

For the sequence CUUAUCCUCAGGAUCUACUGGGUUAGCUAA, the “pre-steady-state target cleavage rate” value turned out to be 0.1 ± 0.036.

Regarding CUUAAGGACUGGAUCUACUGGGAUACCUUA, the “pre-steady-state target cleavage rate” value was determined as 0.0205 ± 0.018.

For the sequence CUUAACCUCUGGAUCGUACUGGGUUACCUAA, the “pre-steady-state target cleavage rate” value is 0.00478 ± 0.0048.

CUUAACCUCUGGAUCUACUGGGUUACCCUAA: the “pre-steady-state target cleavage rate” value came to 0.0717 ± 0.018.

For GAAUUCCUCUGGAUCUACUCGGUAACCUAA, the “pre-steady-state target cleavage rate” value amounted to 0.00964 ± 0.0052.

Turning to CUAUUCCUCUGGAUCUACUGGGUUAACCUAA, the “pre-steady-state target cleavage rate” value was found to be 0.464 ± 0.054.

Consider CUUAAGGUCUGGAUCUACUGGGUUACCUGAA, for which the “pre-steady-state target cleavage rate” value was found to be 0.0645 ± 0.022.

Take CUUAACCUCUGGAUGUACUGGGUUACCUUA: the “pre-steady-state target cleavage rate” value worked out at 0.261 ± 0.022.

With CUUUUCCUCUGGAUCUACUGGGUUUGGUAA, the “pre-steady-state target cleavage rate” value is 0.0711 ± 0.021.

CUUUAGGUCUGGAUCUACUGGGUUACCUAA: the “pre-steady-state target cleavage rate” value worked out at 0.145 ± 0.015.

In the case of CUUAACCUCUGCAUCUACUGGGUUUCCUAA, the “pre-steady-state target cleavage rate” value worked out at 0.0256 ± 0.0076.

On to CUUAAGGUCUGGAUCUUCUGGGUUACCUUA, for which the “pre-steady-state target cleavage rate” value is 0.0759 ± 0.015.

CUUAUCGUCUGGAUCAACUGGGUUACCUAA: the “pre-steady-state target cleavage rate” value stood at 0.149 ± 0.027.

CUUAAGGUCUGGAUCUUCAGGGUUACCUAA: the “pre-steady-state target cleavage rate” value was found to be 0.0535 ± 0.01.

GAUUUCCUCUGGUUCUACUGGGUUACCUAA: the “pre-steady-state target cleavage rate” value was 0.524 ± 0.046.

With CUUAAGGAGUGGAUCUACUGGGAUACCUAA, the “pre-steady-state target cleavage rate” value came to 0.0179 ± 0.0072.

GAAUUGCUCUGGAUCUUCUGGGUUACCUAA: the “pre-steady-state target cleavage rate” value turned out to be 0.0512 ± 0.017.

Regarding CUUAAGCUCUGCAUCUUCUGGGUUACCUAA, the “pre-steady-state target cleavage rate” value worked out at 0.122 ± 0.017.

For the sequence CUUAAGCUUGGAUCUACUGGGUUACCUAA, the “pre-steady-state target cleavage rate” value was 0.22 ± 0.024.

For the sequence CAAAUCCUCUGGAUCAACUGGGUUACCUAA, the “pre-steady-state target cleavage rate” value worked out at 0.458 ± 0.052.

In the case of CUUAAGGAGACCUACUACAGCGUUACCUAA, the “pre-steady-state target cleavage rate” value turned out to be 0.00678 ± 0.0028.

On to GAAUUCCUCUGGAUCUACUGUGGUUACCUAA, for which the “pre-steady-state target cleavage rate” value worked out at 0.00388 ± 0.0038.

GAAUUCCUCUGGAUCUACUGGGUUACCAAA: the “pre-steady-state target cleavage rate” value was found to be 0.318 ± 0.047.

For the sequence CAAUUCCUCUGGAUCUACACCGUUACCUAA, the “pre-steady-state target cleavage rate” value stood at 0.0914 ± 0.012.

Turning to CUUAUGCUCUGGAUCUACUGGGAUACCUAA, the “pre-steady-state target cleavage rate” value worked out at 0.133 ± 0.017.

Regarding GAAUUCCUCUGCAUCUACAGGGUUACCUAA, the “pre-steady-state target cleavage rate” value came to 0.273 ± 0.021.

Regarding CUUAAGGUCUGGAUCUACUGGGUUACCAUA, the “pre-steady-state target cleavage rate” value is 0.203 ± 0.029.

CUUAACCUCUAGGAUCUACUGGGUUACCUAA: the “pre-steady-state target cleavage rate” value was 0.199 ± 0.021.

Consider CAUUUCCUCUGGAUCUACAGGGUUACCUAA, for which the “pre-steady-state target cleavage rate” value came to 0.373 ± 0.039.

With CAAUUCCUCUGGAUCUUGUGGGUUACCUAA, the “pre-steady-state target cleavage rate” value was 0.00475 ± 0.0032.

Take CAAUUCCUCUCGAUCUACUGGGUUAGCUAA: the “pre-steady-state target cleavage rate” value is 0.507 ± 0.046.

In the case of CUUUUCCUCUGGAUCUUCUGGGUUAGCUAA, the “pre-steady-state target cleavage rate” value was determined as 0.084 ± 0.021.

In the case of CUUAUCCUCUGGAUCUACUGGGUUUACCUAA, the “pre-steady-state target cleavage rate” value stood at 0.449 ± 0.052.

Values taken from the supplement of paper PMC10338343.
